# Measurements taken from paper PMC9911399, “Two distinct binding modes provide the RNA-binding protein RbFox with extraordinary sequence specificity”.
# Residue numbers refer to the chain shown, from its start. The list shows a part of the results.
# B1: CUUGUUG (DNA:RNA)
# RNA: GGGAGACCGGAAUUCAGAUUGUCCCUUGUUGUUAAAUCCCGUCGUAGCCACCA
# DNA 1: CAATCTGAATTCCGGTCTCCC
# DNA 2: TGGTGGCTACGACGGGATT
# B2: ACGGCGU (DNA:RNA)
# RNA: B1 RNA with C25A, U26C, U27G, U29C, U30G, G31U
# DNA 1: CAATCTGAATTCCGGTCTCCC
# DNA 2: TGGTGGCTACGACGGGATT
# B3: UUUAGGG (DNA:RNA)
# RNA: B1 RNA with C25U, G28A, U29G, U30G
# DNA 1: CAATCTGAATTCCGGTCTCCC
# DNA 2: TGGTGGCTACGACGGGATT
# B4: GGAUCCU (DNA:RNA)
# RNA: GGGAGACCGGAAUUCAGAUUGUCCGGAUCCUUUAAAUCCCGUCGUAGCCACCA
# DNA 1: CAATCTGAATTCCGGTCTCCC
# DNA 2: TGGTGGCTACGACGGGATT
# B5: UACCAUU (DNA:RNA)
# RNA: B1 RNA with C25U, U26A, U27C, G28C, U29A, G31U
# DNA 1: CAATCTGAATTCCGGTCTCCC
# DNA 2: TGGTGGCTACGACGGGATT
# B6: GCACGAC (DNA:RNA)
# RNA: B4 RNA with G26C, U28C, C29G, C30A, U31C
# DNA 1: CAATCTGAATTCCGGTCTCCC
# DNA 2: TGGTGGCTACGACGGGATT
# B7: CAGUAAA (DNA:RNA)
# RNA: B1 RNA with U26A, U27G, G28U, U29A, U30A, G31A
# DNA 1: CAATCTGAATTCCGGTCTCCC
# DNA 2: TGGTGGCTACGACGGGATT
# B8: AUGGCGG (DNA:RNA)
# RNA: B1 RNA with C25A, U27G, U29C, U30G
# DNA 1: CAATCTGAATTCCGGTCTCCC
# DNA 2: TGGTGGCTACGACGGGATT
# B9: AAGUUCG (DNA:RNA)
# RNA: B1 RNA with C25A, U26A, U27G, G28U, U30C
# DNA 1: CAATCTGAATTCCGGTCTCCC
# DNA 2: TGGTGGCTACGACGGGATT
# B10: GCAUUAU (DNA:RNA)
# RNA: B4 RNA with G26C, C29U, C30A
# DNA 1: CAATCTGAATTCCGGTCTCCC
# DNA 2: TGGTGGCTACGACGGGATT
# B11: AUGAACA (DNA:RNA)
# RNA: B1 RNA with C25A, U27G, G28A, U29A, U30C, G31A
# DNA 1: CAATCTGAATTCCGGTCTCCC
# DNA 2: TGGTGGCTACGACGGGATT
# B12: UUCCUAG (DNA:RNA)
# RNA: B1 RNA with C25U, U27C, G28C, U30A
# DNA 1: CAATCTGAATTCCGGTCTCCC
# DNA 2: TGGTGGCTACGACGGGATT
# B13: ACAGCUC (DNA:RNA)
# RNA: B1 RNA with C25A, U26C, U27A, U29C, G31C
# DNA 1: CAATCTGAATTCCGGTCTCCC
# DNA 2: TGGTGGCTACGACGGGATT
# B14: GUGGCUG (DNA:RNA)
# RNA: B1 RNA with C25G, U27G, U29C
# DNA 1: CAATCTGAATTCCGGTCTCCC
# DNA 2: TGGTGGCTACGACGGGATT
# B15: ACUGGCA (DNA:RNA)
# RNA: B1 RNA with C25A, U26C, U29G, U30C, G31A
# DNA 1: CAATCTGAATTCCGGTCTCCC
# DNA 2: TGGTGGCTACGACGGGATT
# B16: GAGAACU (DNA:RNA)
# RNA: B4 RNA with G26A, A27G, U28A, C29A
# DNA 1: CAATCTGAATTCCGGTCTCCC
# DNA 2: TGGTGGCTACGACGGGATT
# B17: GCGUUCU (DNA:RNA)
# RNA: B4 RNA with G26C, A27G, C29U
# DNA 1: CAATCTGAATTCCGGTCTCCC
# DNA 2: TGGTGGCTACGACGGGATT
# B18: UGGACUG (DNA:RNA)
# RNA: B1 RNA with C25U, U26G, U27G, G28A, U29C
# DNA 1: CAATCTGAATTCCGGTCTCCC
# DNA 2: TGGTGGCTACGACGGGATT
# B19: AACCACU (DNA:RNA)
# RNA: B4 RNA with G25A, G26A, A27C, U28C, C29A
# DNA 1: CAATCTGAATTCCGGTCTCCC
# DNA 2: TGGTGGCTACGACGGGATT
# B20: GAGGCAG (DNA:RNA)
# RNA: B1 RNA with C25G, U26A, U27G, U29C, U30A
# DNA 1: CAATCTGAATTCCGGTCTCCC
# DNA 2: TGGTGGCTACGACGGGATT
# Biological target: T1, RBFOX1 RRM RbFoxmut (Fox-RRM*) (Homo sapiens, UniProt Q9NWB1 109-208, R118D;E147R;N151S;E152T)
# T1 sequence: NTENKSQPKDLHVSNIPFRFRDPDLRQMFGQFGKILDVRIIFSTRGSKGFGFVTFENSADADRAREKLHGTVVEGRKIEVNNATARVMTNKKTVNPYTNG
# Assay: EMSA; HiTS-Eq, 1 nM pool, 10 min; buffer printed only for the single-RNA assays: 10 mM Tris pH 7.5, 150 mM NaCl, 3.4 mM EDTA, 0.001% NP-40, 30 C
# Settings: tags: His6 N-terminal (pET28a); label: 5' 32P
# Summary of the method: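 Purified RbFox RRM (wild type or mutant) was equilibrated for 10 min in 50 µL with 1 nM of a 5′-radiolabelled pool of RNA with 7 randomized nucleotides, its flanks annealed to DNA oligonucleotides, across increasing protein concentrations. Free RNA was separated by 8% native PAGE, excised, reverse-transcribed, PCR-barcoded and sequenced on an Illumina HiSeq 2500. Relative association constants came from read-count changes of each variant against the control reaction, normalised to the cognate motif.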
row,Binder,binding signal
1,B1,0.147 KA relative to UGCAUGU
2,B2,0.116 KA relative to UGCAUGU
3,B3,0.0837 KA relative to UGCAUGU
4,B4,0.113 KA relative to UGCAUGU
5,B5,0.0702 KA relative to UGCAUGU
6,B6,0.175 KA relative to UGCAUGU
7,B7,0.0932 KA relative to UGCAUGU
8,B8,0.105 KA relative to UGCAUGU
9,B9,0.185 KA relative to UGCAUGU
10,B10,0.141 KA relative to UGCAUGU
11,B11,0.111 KA relative to UGCAUGU
12,B12,0.105 KA relative to UGCAUGU
13,B13,0.063 KA relative to UGCAUGU
14,B14,0.549 KA relative to UGCAUGU
15,B15,0.16 KA relative to UGCAUGU
16,B16,0.0695 KA relative to UGCAUGU
17,B17,0.073 KA relative to UGCAUGU
18,B18,0.418 KA relative to UGCAUGU
19,B19,0.0772 KA relative to UGCAUGU
20,B20,0.0835 KA relative to UGCAUGU
